# PubChem BioAssay AID504333 (National Center for Advancing Translational Sciences (NCATS), 2011)
# About 16,000 (4.4%) of roughly 360,000 compounds were called active. The shares of active, inactive and inconclusive entries below differ from those in the screen. The call rests on the fitted dose curve; in most records, active means well fitted inhibition curve with a large enough effect; inconclusive means small, poorly fitted or top-dose-only effect; inactive means no such curve, though single readings can be large or run the other way. A potency beside an inconclusive call is a rough fit, not a confirmed value.
# Target: Bromodomain adjacent to zinc finger domain protein 2B (Homo sapiens) (UniProt Q9UIF8)
# Test: qHTS Assay for Inhibitors of BAZ2B; further: nearly all actives have a fitted effect of over 60% in size
# Details: AlphaScreen BAZ2B-H3K14Ac peptide displacement; activity change, negative = inhibition: at 114 µM (top of the series)
# Procedure, shortened: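 BAZ2B (50 nM) with biotin-H3(5-23)K14Ac peptide (50 nM) in PBS pH 7.4, 0.01% Tween-20, preformed 30 min, then compound 30 min at room temperature; top concentration 110uM. AlphaScreen streptavidin donor/nickel chelate acceptor beads (10 ug/mL final), 20 min dark, signal read.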
# On the % scale 0 is the no-effect control and ±100 the full control effect; potency means the concentration at half of the fitted maximal effect; tags describe the fitted curve by direction and shape.
# UniProt Q9UIF8, sequence (Q9UIF8 whole entry, looked up, the tested form may be a part): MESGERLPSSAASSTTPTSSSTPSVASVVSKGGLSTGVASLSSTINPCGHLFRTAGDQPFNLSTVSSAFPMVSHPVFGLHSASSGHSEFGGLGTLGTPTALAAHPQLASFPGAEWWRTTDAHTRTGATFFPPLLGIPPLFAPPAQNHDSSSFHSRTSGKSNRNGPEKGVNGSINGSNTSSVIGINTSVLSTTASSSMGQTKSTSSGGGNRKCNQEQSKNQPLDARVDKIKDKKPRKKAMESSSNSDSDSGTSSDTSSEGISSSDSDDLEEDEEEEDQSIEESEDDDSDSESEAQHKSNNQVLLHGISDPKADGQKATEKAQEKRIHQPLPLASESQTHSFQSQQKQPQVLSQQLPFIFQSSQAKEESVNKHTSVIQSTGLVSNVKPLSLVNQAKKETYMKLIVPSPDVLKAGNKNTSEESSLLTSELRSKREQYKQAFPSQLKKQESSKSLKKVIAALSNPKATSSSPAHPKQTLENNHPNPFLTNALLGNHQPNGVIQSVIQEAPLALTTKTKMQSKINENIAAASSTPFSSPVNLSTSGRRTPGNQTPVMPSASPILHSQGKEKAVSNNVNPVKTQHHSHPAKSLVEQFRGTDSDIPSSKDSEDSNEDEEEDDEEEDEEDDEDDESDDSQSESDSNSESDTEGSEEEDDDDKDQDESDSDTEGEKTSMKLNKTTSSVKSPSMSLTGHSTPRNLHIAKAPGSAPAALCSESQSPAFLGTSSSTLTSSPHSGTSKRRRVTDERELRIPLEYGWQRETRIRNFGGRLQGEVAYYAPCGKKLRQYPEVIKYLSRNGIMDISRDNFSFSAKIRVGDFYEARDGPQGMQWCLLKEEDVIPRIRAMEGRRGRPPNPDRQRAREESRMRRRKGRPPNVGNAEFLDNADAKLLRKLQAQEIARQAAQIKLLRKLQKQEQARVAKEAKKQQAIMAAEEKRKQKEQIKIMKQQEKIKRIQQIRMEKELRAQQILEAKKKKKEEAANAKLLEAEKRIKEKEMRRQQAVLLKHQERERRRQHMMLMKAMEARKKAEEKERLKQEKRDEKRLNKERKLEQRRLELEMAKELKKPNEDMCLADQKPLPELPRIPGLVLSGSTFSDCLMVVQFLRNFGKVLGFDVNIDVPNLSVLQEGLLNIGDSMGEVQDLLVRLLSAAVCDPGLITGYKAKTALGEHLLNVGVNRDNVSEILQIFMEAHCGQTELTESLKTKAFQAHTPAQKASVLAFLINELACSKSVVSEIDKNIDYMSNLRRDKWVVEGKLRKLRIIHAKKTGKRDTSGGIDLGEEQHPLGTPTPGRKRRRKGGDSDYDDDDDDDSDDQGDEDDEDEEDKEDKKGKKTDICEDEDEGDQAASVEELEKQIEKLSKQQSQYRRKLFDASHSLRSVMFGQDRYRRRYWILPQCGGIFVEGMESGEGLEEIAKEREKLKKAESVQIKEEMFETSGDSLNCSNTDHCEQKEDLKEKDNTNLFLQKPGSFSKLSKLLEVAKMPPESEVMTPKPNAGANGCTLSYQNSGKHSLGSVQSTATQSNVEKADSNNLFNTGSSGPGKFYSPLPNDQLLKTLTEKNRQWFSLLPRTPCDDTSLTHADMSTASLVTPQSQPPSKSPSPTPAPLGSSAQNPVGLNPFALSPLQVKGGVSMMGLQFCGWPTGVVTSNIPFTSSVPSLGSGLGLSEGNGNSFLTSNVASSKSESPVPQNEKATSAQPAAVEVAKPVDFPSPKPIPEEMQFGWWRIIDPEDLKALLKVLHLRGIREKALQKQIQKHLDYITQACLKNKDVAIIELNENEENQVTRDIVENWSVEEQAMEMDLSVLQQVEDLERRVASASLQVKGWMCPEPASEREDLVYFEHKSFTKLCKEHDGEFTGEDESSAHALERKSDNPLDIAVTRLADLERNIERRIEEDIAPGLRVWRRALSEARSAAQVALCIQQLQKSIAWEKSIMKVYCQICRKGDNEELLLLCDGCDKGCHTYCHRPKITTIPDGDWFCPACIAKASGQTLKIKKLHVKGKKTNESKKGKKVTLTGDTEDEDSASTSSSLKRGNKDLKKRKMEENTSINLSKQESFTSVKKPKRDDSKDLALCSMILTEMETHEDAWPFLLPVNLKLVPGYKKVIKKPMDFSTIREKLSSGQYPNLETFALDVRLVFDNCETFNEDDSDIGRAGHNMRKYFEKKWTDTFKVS
SMILES,Potency,"activity change, negative = inhibition"
CN(C)c1ccc(C(=O)c2ccc(N(C)C)c3ccccc23)cc1,"inconclusive: 35.5 µM [inhibitor, full curve]",–
O=C(Cc1ccccc1Cl)Nc1cc(S(=O)(=O)N2CCOCC2)ccc1N1CCOCC1,–,inactive: 17%
O=C(O)C1Oc2cc3ccccc3cc2O1,–,inactive: -23.4%
COc1ccc(N2CCN(CCNS(=O)(=O)c3cccc4nsnc34)CC2)cc1,–,inactive: -38.8%
CN1CCN(NC(=O)CN2C(=O)/C(=C/c3c(Cl)cccc3Cl)SC2=S)CC1,"inconclusive: 44.7 µM [inhibitor, partial curve]",–
CCCC(=O)Nc1ccc(C(=O)NCC(=O)OCC)cc1,"inconclusive: 0.708 µM [inhibitor, partial curve, poor fit]",–
CC(C)n1c(N2CCN(CC(=O)NCc3cccs3)CC2)nc2ccccc21,"inconclusive: 89.1 µM [inhibitor, single point]",–
COc1ccc(CC(=O)Oc2ccc(C)cc2Br)cc1OC,active: 50.1 µM,–
O=C(OCC(=O)c1ccc(Cl)s1)c1ccc2ccccc2n1,"inconclusive: 50.1 µM [inhibitor, partial curve]",–
COc1ccc(/C=N/N=C2/NC(=O)C(CC(=O)O)S2)cc1OCc1ccccc1Cl (configuration not stated),active: 50.1 µM,–
Cc1cc(C)nc(NCC(O)CNc2ccccc2C)n1 (configuration not stated),–,inactive: -27.7%
COc1ccccc1N1CCN(C(=O)c2nc(SC)ncc2Cl)CC1,–,inactive: -13%
Cc1c(Br)cc(C(=O)N2CCCCCC2)c(C)c1C,"inconclusive: 6.31 µM [inhibitor, single point]",–
O=[N+]([O-])c1ccc(C(O)C[n+]2ccccc2)cc1 (configuration not stated),–,inactive: -30.2%
COc1ccc(C)cc1NC(=O)CCS(=O)(=O)c1cc2c3c(c1)CCN3C(=O)CC2,–,inactive: -15.6%
CCc1nnc(NC(=O)c2c(-c3ccccc3)noc2C)s1,–,inactive: -16.5%
CCOC(=O)N1CCc2c(sc(NCc3sccc3C)c2C(=O)Nc2ccc(OC)cc2OC)C1,"inconclusive: 35.5 µM [inhibitor, full curve, poor fit]",–
COc1ccc(Cl)cc1S(=O)(=O)N1CCCC(C(=O)NCc2ccncc2)C1 (configuration not stated),–,inactive: 8.24%
Cc1cccc(-c2nc(C#N)c(N3CCCCCC3)o2)c1,active: 12.6 µM,–
O=C(N/N=C/c1ccc(O)c(O)c1)c1cc(-c2ccccc2)nc2ccccc12,"inconclusive: 35.5 µM [inhibitor, partial curve]",–
O=C(NCc1ccc(Cl)cc1)Nc1ccc(F)cc1,–,inactive: 0.588%
CCOc1ccc(NC(=O)N(C2CCCC2)C2CCN(C(C)=O)CC2)cc1,"inconclusive: 31.6 µM [inhibitor, partial curve, poor fit]",–
COc1cccc(N2CCN(CC(=O)Nc3ccccc3C(=O)NCCc3ccccc3)CC2)c1,"inconclusive: 39.8 µM [inhibitor, partial curve]",–
Cc1ccc(NC(=O)CCn2c(=O)c3cccn3c3ccccc32)cc1C,"inconclusive: 50.1 µM [inhibitor, partial curve]",–

SMILES,Potency,"activity change, negative = inhibition"
O=C(OC1CCOC1=O)c1ccc(N2CCCC2)c([N+](=O)[O-])c1 (configuration not stated),"inconclusive: 50.1 µM [inhibitor, partial curve]",–
COc1cc(/C=N/NC(N)=O)ccc1OC(=O)c1cccs1,"inconclusive: 89.1 µM [inhibitor, single point]",–
COc1ccc(Cl)cc1NC(=O)CSc1nnc(C2CC2)n1N,–,inactive: 9.64%
CCCCOc1ccc(C(=O)Oc2cc(C)[nH]c(=O)c2[N+](=O)[O-])cc1,"inconclusive: 89.1 µM [inhibitor, single point]",–
Cc1ccc(CNC(=O)C(=O)NCC2CCCN2S(=O)(=O)c2cccs2)cc1 (configuration not stated),–,inactive: 2.86%
CCCCOC(=O)c1ccc(NC(=O)c2cc3c(=O)n4cccc(C)c4nc3s2)cc1,–,inactive: 5.71%
C/C(CC(=O)Nc1ccccn1)=N\NC(=O)c1ccccc1O,"inconclusive: 35.5 µM [inhibitor, partial curve]",–
CN(CCCS(=O)(=O)[O-])c1ccc(/C=C/c2ccc3ccccc3[n+]2C)cc1,"inconclusive: 70.8 µM [inhibitor, single point]",–
COc1ccc(NC(=O)/C(Cl)=C(/Cl)S(=O)(=O)Cc2ccccc2)cn1,–,inactive: -2.45%
CCOC(=O)CC(c1ccc([N+](=O)[O-])cc1)n1c(C)ccc1C (configuration not stated),active: 44.7 µM,–
C[n+]1ccc(/C=C/c2cccs2)cc1,–,inactive: -23.2%
O=C(CN1CCN(Cc2ccc3c(c2)OCO3)CC1)N1CCc2[nH]c3ccccc3c2C1,"inconclusive: 79.4 µM [inhibitor, single point]",–
COc1ccccc1N1CCN(C(=O)CNC(=O)Cn2cnc3sc(C)c(C)c3c2=O)CC1,"inconclusive: 0.708 µM [inhibitor, full curve, poor fit]",–
CCc1nnc(NS(=O)(=O)c2ccc(N/C=C\C(=O)c3cccc(OC)c3)cc2)s1,–,inactive: -37.7%
COc1cccc(CNC(=O)CCc2c(C)nc3c(c(C)nn3-c3ccc(C)c(C)c3)c2C)c1,–,inactive: 3.97%
Cc1cccc(N2CCN(CCCNc3ncnc4onc(-c5ccc(Cl)cc5)c34)CC2C)c1 (configuration not stated),"inconclusive: 35.5 µM [inhibitor, single point]",–
CCOC(=O)c1c(C)[nH]c(C(=O)NNC(=O)c2ccc(Br)cc2)c1C,"inconclusive: 79.4 µM [inhibitor, single point]",–
CCN(CC)c1ccc(NC(=O)COC(=O)C23CCC(=O)N2c2ccccc2S3)cc1 (configuration not stated),"inconclusive: 50.1 µM [inhibitor, partial curve, poor fit]",–
CCOC(=O)c1c(NC(=S)Nc2ccc(OCC)cc2)sc2c1CCN(C)C2,"inconclusive: 50.1 µM [inhibitor, partial curve]",–
COc1ccc(NC(=O)Cn2c(=O)n(CCC(=O)NCc3ccccc3OC)c(=O)c3ccccc32)cc1Cl,–,inactive: -20.5%
CC1CCc2nc3ccc(S(=O)(=O)N4CCC(C(=O)NC(C)c5ccccc5)CC4)cc3c(C(=O)O)c2C1 (configuration not stated),"inconclusive: 89.1 µM [inhibitor, single point]",–
Cc1cccc(OC(=O)c2sc(Cl)nc2C)c1,–,inactive: 58.3%
Cc1c(C(=O)O)cccc1-n1c(C)cc(/C=N/Nc2ccc([N+](=O)[O-])cn2)c1C,active: 44.7 µM,–
